Read-outs that look alike come from different tables or passages of the source. Results are given in words; binding and its absence hold for the method and conditions named. For some of these results: Binding seen in cells or lysates may run through a third protein. Some binding calls cover weakened binding; strength is not graded here. Sequences can lack the tags named with a protein.

Sequences of proteins named here, by UniProt entry; tags and fusion partners are left off.
UniProt A4GSN8: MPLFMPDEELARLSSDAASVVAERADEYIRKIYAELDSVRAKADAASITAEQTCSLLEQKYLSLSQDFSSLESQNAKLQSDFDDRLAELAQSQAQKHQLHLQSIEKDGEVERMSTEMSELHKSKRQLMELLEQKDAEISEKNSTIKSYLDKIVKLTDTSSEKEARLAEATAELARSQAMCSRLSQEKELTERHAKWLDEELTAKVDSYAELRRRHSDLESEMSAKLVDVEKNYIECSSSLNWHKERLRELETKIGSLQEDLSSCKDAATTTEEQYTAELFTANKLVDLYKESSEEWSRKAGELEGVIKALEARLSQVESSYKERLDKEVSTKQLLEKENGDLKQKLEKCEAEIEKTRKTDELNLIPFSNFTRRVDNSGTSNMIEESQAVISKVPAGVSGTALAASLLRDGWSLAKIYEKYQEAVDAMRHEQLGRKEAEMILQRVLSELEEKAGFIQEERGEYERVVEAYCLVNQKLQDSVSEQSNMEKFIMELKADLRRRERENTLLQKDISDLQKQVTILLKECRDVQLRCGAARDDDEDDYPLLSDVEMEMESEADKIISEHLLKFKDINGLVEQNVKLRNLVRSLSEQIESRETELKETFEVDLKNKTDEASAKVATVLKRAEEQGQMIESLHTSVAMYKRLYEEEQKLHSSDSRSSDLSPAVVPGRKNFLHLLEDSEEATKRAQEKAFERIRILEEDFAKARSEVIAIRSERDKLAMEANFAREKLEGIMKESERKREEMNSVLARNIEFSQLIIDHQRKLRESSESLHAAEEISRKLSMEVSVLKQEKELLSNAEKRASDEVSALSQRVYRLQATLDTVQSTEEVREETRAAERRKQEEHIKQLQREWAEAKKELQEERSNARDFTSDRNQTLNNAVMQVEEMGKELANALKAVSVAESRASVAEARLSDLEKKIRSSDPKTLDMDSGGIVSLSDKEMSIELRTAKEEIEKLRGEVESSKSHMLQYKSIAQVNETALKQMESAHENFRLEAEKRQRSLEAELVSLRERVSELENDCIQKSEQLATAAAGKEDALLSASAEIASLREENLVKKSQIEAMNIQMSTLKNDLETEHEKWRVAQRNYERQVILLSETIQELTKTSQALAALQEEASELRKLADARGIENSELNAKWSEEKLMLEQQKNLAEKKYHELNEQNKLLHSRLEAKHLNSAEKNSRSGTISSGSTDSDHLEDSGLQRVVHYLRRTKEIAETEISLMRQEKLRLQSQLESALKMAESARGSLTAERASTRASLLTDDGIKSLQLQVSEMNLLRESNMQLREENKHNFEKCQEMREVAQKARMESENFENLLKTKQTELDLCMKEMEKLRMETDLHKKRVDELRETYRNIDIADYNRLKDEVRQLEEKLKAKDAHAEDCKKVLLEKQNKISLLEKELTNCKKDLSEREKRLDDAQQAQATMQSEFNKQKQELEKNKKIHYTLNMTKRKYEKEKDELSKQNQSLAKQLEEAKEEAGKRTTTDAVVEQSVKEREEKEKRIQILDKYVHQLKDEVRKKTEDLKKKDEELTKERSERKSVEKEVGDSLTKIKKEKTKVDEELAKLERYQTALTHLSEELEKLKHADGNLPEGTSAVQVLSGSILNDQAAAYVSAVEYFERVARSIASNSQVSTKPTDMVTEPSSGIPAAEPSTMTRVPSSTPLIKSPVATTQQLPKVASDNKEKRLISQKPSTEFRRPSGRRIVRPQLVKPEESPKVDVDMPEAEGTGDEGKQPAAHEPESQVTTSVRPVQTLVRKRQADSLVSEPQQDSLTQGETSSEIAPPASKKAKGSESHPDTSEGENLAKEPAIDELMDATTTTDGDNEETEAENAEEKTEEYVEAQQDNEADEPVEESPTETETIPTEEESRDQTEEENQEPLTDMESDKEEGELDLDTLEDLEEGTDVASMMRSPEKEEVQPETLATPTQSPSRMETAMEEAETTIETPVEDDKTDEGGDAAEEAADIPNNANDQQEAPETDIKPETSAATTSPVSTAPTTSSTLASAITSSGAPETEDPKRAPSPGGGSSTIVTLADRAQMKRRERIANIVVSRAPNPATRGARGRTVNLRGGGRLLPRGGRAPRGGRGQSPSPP

We go through 3 molecules from article PMC10442006.

In experiment [1] the target is T1, SnRK2.3-nLUC (Arabidopsis thaliana) (UniProt Q39193).
T1 sequence: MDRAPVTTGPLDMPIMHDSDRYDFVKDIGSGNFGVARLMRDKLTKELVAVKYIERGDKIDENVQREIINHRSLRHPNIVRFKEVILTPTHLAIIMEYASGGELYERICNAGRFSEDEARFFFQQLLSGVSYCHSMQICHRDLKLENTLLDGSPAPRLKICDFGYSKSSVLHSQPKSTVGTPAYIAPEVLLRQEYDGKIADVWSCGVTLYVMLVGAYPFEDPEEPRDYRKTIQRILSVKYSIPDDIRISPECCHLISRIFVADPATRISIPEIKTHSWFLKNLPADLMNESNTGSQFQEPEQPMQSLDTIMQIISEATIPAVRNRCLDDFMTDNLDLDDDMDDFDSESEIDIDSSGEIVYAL
The experiment is described as follows: split reporter; split-luciferase complementation (LCI): cLUC and nLUC fusions co-infiltrated by A. tumefaciens GV3101 into N. benthamiana leaves; LUC signal with 1 mM D-luciferin about 2 days after infiltration.

The target of experiment [2] is T2, SnRK2.6-nLUC (Arabidopsis thaliana) (UniProt Q940H6).
T2 sequence: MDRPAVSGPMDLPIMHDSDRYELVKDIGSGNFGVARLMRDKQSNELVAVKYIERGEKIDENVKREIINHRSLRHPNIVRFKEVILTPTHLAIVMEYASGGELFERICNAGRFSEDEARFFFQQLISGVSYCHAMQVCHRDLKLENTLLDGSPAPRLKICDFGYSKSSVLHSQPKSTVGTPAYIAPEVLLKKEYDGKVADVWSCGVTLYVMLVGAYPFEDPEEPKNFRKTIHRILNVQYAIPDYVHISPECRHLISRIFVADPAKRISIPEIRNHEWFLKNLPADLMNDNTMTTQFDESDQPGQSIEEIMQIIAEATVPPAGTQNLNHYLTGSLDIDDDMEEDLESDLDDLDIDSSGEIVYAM
The experiment is described as above.

The target of experiment [3] is T3, SnRK2.2-nLUC (Arabidopsis thaliana) (UniProt Q39192).
T3 sequence: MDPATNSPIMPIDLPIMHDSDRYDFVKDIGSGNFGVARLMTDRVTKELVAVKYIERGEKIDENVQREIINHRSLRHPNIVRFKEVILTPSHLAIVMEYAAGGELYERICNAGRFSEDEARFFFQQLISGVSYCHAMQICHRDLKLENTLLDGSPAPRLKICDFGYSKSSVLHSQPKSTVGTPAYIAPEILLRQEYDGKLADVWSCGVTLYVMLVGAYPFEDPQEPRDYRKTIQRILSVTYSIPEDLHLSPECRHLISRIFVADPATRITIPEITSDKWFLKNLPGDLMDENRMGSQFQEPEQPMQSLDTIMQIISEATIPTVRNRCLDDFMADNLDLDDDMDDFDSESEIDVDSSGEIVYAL
Described as above.

Experiment [4] concerns the target T4, SnRK2.2 fused to the GAL4 BD (Arabidopsis thaliana) (UniProt Q39192).
T4 sequence: T3 sequence
Put plainly: two-hybrid; NUA or ESD4 on the GAL4 AD (pGADT7), SnRK2s on the GAL4 BD (pGBKT7), co-transformed into S. cerevisiae AH109; growth on -Leu/-Trp/-His (with 3-AT) or -Leu/-Trp/-His/-Ade.

In experiment [5] the target is T1, SnRK2.3-nLUC (Arabidopsis thaliana). The experiment is described as follows: split reporter; split-luciferase complementation (LCI): cLUC and nLUC fusions co-infiltrated by A. tumefaciens GV3101 into N. benthamiana leaves; LUC signal with 1 mM D-luciferin about 2 days after infiltration. This is another data set of the same source.
Experiment [6] has as its target T2, SnRK2.6-nLUC (Arabidopsis thaliana). Described as above. The source holds these as a separate data set.
The target in experiment [7] is T3, SnRK2.2-nLUC (Arabidopsis thaliana). The description is as above. The source holds these as a separate data set.

Regarding cLUC-NUA (from UniProt A4GSN8 1-2093), the binding result in experiment [1], in experiment [2] and in experiment [3] was “binds” each time.

B1: EARLY IN SHORT DAYS 4 (ESD4) SUMO protease fused to the GAL4 AD (enzyme, UniProt Q94F30 1-489)
chain: MGAVAINRKRSDESFNFINQQSTNPLRNSPYFQASKKRRFSFAMSEDSGKPASSNPTISRISRYPDAKAPLRREIHAPSRGILRYGKAKSNDYCEKDANFFVRKYDDAKRSALEALRFVNKGKDFVDLGDEVEKEEVVSDDSSVQAIEVIDCDDDEEKKNLQPSFSSGVTDVKKGENFRVEDTSMMLDSLSLDRDVDNDASSLEAYRKLMQSAEKRNSKLEALGFEIVLNEKKLSLLRQSRPKTVEKRVEVPREPFIPLTEDEEAEVYRAFSGRNRRKVLATHENSNIDITGEVLQCLTPSAWLNDEVINVYLELLKERETREPKKYLKCHYFNTFFYKKLVSDSGYNFKAVRRWTTQRKLGYALIDCDMIFVPIHRGVHWTLAVINNRESKLLYLDSLNGVDPMILNALAKYMGDEANEKSGKKIDANSWDMEFVEDLPQQKNGYDCGMFMLKYIDFFSRGLGLCFSQEHMPYFRLRTAKEILRLRAD
B1: the binding result in experiment [4] was “binds”.

B2: cLUC-ESD4 (enzyme, UniProt Q94F30 1-489)
chain: B1 chain
As for B2, the binding result in experiment [5], in experiment [6] and in experiment [7] was “binds weakly” each time.
